The campaign covered roughly 310,000 compounds. About 2,200 (0.71%) showed an effect of 50% or more. Effects have a minus sign here. The list shows a part of the results. Where a SMILES comes first, the peptide text is derived from it. [ ]: non-standard residue; d: D form. NMeY = CN[C@@H](Cc1ccc(O)cc1)C(=O)O; NMeF = CN[C@@H](Cc1ccccc1)C(=O)O; 2Abz = Nc1ccccc1C(=O)O
What follows are compounds tested against human ether-à-go-go-related gene (hERG) potassium channel (human, UniProt Q12809) (assay: primary screen, population patch clamp on CHO cells stably expressing hERG).
human ether-à-go-go-related gene (hERG) potassium channel, sequence (Q12809 whole entry, looked up): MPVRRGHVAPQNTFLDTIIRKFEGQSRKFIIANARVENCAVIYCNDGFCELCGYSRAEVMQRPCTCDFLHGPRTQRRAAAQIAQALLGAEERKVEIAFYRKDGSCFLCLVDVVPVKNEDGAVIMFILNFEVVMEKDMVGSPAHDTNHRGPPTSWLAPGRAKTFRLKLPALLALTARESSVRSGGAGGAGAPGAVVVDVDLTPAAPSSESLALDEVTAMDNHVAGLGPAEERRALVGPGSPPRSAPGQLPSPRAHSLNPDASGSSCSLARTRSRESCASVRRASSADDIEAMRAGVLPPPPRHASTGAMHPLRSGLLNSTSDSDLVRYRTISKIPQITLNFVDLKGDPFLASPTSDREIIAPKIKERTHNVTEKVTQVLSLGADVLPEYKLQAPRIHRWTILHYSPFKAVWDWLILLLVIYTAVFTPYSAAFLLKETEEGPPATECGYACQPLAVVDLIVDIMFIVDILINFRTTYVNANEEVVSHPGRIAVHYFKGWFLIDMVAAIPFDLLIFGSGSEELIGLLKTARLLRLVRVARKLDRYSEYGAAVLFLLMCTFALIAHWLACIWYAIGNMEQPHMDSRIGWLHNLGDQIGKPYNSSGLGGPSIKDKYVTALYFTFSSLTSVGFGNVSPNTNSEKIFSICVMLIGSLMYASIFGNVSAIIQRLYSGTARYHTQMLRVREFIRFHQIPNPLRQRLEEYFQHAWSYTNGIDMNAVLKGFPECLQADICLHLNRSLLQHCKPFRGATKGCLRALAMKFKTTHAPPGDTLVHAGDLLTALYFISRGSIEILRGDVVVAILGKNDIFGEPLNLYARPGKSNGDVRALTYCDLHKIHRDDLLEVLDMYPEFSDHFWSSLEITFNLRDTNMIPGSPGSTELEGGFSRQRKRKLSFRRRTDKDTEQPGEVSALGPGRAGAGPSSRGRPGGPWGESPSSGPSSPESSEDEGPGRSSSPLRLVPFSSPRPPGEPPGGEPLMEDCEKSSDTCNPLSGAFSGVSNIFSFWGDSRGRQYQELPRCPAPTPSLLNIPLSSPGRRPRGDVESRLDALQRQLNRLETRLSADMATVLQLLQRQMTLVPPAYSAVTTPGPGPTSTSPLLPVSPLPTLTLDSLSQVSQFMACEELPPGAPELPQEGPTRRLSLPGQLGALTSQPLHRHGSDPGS
Cc1ccc(C(=O)N/N=C\c2cc3c(cc2Br)OCO3)cn1 was tested, and the “hERG current change (%, negative = inhibition) at 1uM” value was 10.9%. CCOC(=O)c1cc(-c2ccccc2)nn1CC1CC(c2cccc([N+](=O)[O-])c2)=NO1 (stereo not drawn) was tested, and the “hERG current change (%, negative = inhibition) at 1uM” value was 7.11%. CC(=O)CSc1ccc(-c2nc3cc(C)c(C)cc3[nH]2)cn1 was tested, and the “hERG current change (%, negative = inhibition) at 1uM” value was 20.1%. O=C(CNc1cccc(S(=O)(=O)N2CCCC2)c1)Nc1ccc(F)cc1F was tested, and the “hERG current change (%, negative = inhibition) at 1uM” value was 10.2%. O=C(c1csc2c1CCCC2)N1CCN(c2ccc(F)cc2)CC1 was tested, and the “hERG current change (%, negative = inhibition) at 1uM” value was 2.84%. Cc1ccc(S(=O)(=O)NCCC(=O)Nc2ccc(C)cc2C(=O)c2ccccc2)cc1 was tested, and the “hERG current change (%, negative = inhibition) at 1uM” value was -6.94%. In the case of O=C(Nc1nc(-c2ccccn2)cs1)c1ccc(F)c(S(=O)(=O)N2CCOCC2)c1, the “hERG current change (%, negative = inhibition) at 1uM” value was 5.44%. O=C(COc1ccc(Br)cc1)NCc1cn2ccccc2n1 was tested, and the “hERG current change (%, negative = inhibition) at 1uM” value was -4.23%. COCCn1c(C)cc(C(=O)COC(=O)c2ccc3ncsc3c2)c1C was tested, and the “hERG current change (%, negative = inhibition) at 1uM” value was 10.3%. With CN(C)CCNc1nc2sc3c(c2c(=O)n1CCc1ccccc1)CCCCC3 the “hERG current change (%, negative = inhibition) at 1uM” value was 8.83%. CCOC(=O)Cc1csc(NC(=S)NC(=O)c2ccccc2Br)n1 was tested, and the “hERG current change (%, negative = inhibition) at 1uM” value was 10.4%. For CC(=O)c1c(C)oc2ccc(N(C(C)=O)S(=O)(=O)c3ccc(Br)cc3)cc12, the “hERG current change (%, negative = inhibition) at 1uM” value was 7.68%. O=C(Nc1ccc(NC(=O)c2ccccc2F)cc1)c1ccccc1F was tested, and the “hERG current change (%, negative = inhibition) at 1uM” value was 17.3%. For Cc1cc(=O)n2c3ccccc3n(CC(O)CN3CCCCC3)c2c1C#N (stereo not drawn), the “hERG current change (%, negative = inhibition) at 1uM” value was -13.5%. S=C(Nc1ccc(Br)cc1)NC1CCCCC1 was tested, and the “hERG current change (%, negative = inhibition) at 1uM” value was 5.81%. With CCOC(=O)C1C(=O)CC(C)(O)C(C(=O)OCC)C1c1ccc2c(c1)OCO2 (stereo not drawn) the “hERG current change (%, negative = inhibition) at 1uM” value was -0.261%. With Cc1cc(C)cc(N2C(=O)C3CC=CCC3C2=O)c1 (stereo not drawn) the “hERG current change (%, negative = inhibition) at 1uM” value was 7.16%. With CCc1ccc2oc(C(=O)NCC(c3ccc(OC)cc3)N3CCCCC3)c(C)c2c1 (stereo not drawn) the “hERG current change (%, negative = inhibition) at 1uM” value was 5.54%. In the case of COCCn1nnnc1C(c1ccccn1)N1CCN(c2cc(Cl)ccc2C)CC1 (stereo not drawn), the “hERG current change (%, negative = inhibition) at 1uM” value was 7.86%. For Cc1ccccc1OCCNC(=O)c1ccco1, the “hERG current change (%, negative = inhibition) at 1uM” value was 14%. For CCOC(=O)c1cnn(-c2cc(C)cc(C)c2)c1N, the “hERG current change (%, negative = inhibition) at 1uM” value was 0.708%. NNc1ccc2c(C(F)(F)F)cc(C(F)(F)F)nc2n1 was tested, and the “hERG current change (%, negative = inhibition) at 1uM” value was 12.4%. For O=C(CCc1ccccc1)N1CCN(c2ccccc2F)CC1, the “hERG current change (%, negative = inhibition) at 1uM” value was 13%. With O=C(CCS(=O)(=O)c1ccc(F)cc1)Nc1nnc(-c2cccs2)o1 the “hERG current change (%, negative = inhibition) at 1uM” value was 14.8%. For Cc1ccc(-c2cc(C(=O)NCCCn3ccnc3)c3cc(Br)ccc3n2)o1, the “hERG current change (%, negative = inhibition) at 1uM” value was -21.3%. In the case of CCN(C(=O)COC(=O)Cc1ccccc1)c1c(N)n(Cc2ccccc2)c(=O)[nH]c1=O, the “hERG current change (%, negative = inhibition) at 1uM” value was 17.5%. In the case of N#CC1=C2SCC(O)(c3ccccc3)N2C(=O)CC1c1ccccc1 (stereo not drawn), the “hERG current change (%, negative = inhibition) at 1uM” value was 2.34%. O=C(Nc1ccc2c(c1)OCCO2)N1CCN(c2ccccc2)CC1 was tested, and the “hERG current change (%, negative = inhibition) at 1uM” value was -9.73%. With COc1ccc(N(CC(=O)NCc2ccncc2)S(=O)(=O)c2ccccc2[N+](=O)[O-])c(OC)c1 the “hERG current change (%, negative = inhibition) at 1uM” value was -1.43%. For CCOc1cc(-c2ccccc2)nc(N)n1, the “hERG current change (%, negative = inhibition) at 1uM” value was -1.35%. With Cc1nn(-c2ccccc2)c(C)c1NC(=O)COc1ccc2ccccc2c1 the “hERG current change (%, negative = inhibition) at 1uM” value was -11.1%. For Cn1c(=O)c2c(ncn2Cc2cccc(Cl)c2)n(C)c1=O, the “hERG current change (%, negative = inhibition) at 1uM” value was 7.58%. In the case of Cc1c(N/C=C/C(=O)C(F)(F)F)c(=O)n(-c2ccccc2)n1C, the “hERG current change (%, negative = inhibition) at 1uM” value was 14.7%. CCCC(=O)N(CC(=O)Nc1sc(C)c(C)c1C(N)=O)Cc1ccccc1 was tested, and the “hERG current change (%, negative = inhibition) at 1uM” value was -5.81%. With COc1ccc(/C=C(\NC(=O)c2ccccc2)C(=O)NCC2CCCO2)cc1 (stereo not drawn) the “hERG current change (%, negative = inhibition) at 1uM” value was 7.36%. In the case of Cc1ccccc1C#N, the “hERG current change (%, negative = inhibition) at 1uM” value was 19.9%. For Fc1ccc(CN2CCCN(Cc3nc(-c4ccc5c(c4)OCO5)no3)CC2)cc1, the “hERG current change (%, negative = inhibition) at 1uM” value was -4.38%. In the case of CCOC(=O)[C@H]1[C@H]2COc3ccccc3[C@@H]2N2C(=O)c3ccc(Cl)cc3NC(=O)[C@@]12C, the “hERG current change (%, negative = inhibition) at 1uM” value was 12.6%. In the case of Cc1ccc(C(=O)NNC(=O)C2CCN(c3nc(C)cc(C)n3)CC2)cc1, the “hERG current change (%, negative = inhibition) at 1uM” value was 11.4%. Cc1ccccc1OCC(=O)Nc1cc(S(=O)(=O)N2CCCCC2)ccc1N1CCN(C)CC1 was tested, and the “hERG current change (%, negative = inhibition) at 1uM” value was 10.6%. In the case of O=c1cc(CN2CCN(c3ccccc3O)CC2)nc2sccn12, the “hERG current change (%, negative = inhibition) at 1uM” value was 15.8%. With CC(NC(=O)c1cccs1)c1ccccc1 (stereo not drawn) the “hERG current change (%, negative = inhibition) at 1uM” value was 14.6%. COc1cccc(CNC(=O)CS(=O)(=O)Cc2nc(-c3ccc(C)cc3)oc2C)c1OC was tested, and the “hERG current change (%, negative = inhibition) at 1uM” value was 12.6%. CC1CCC(NC(=O)C(=O)Nc2ccc3c(c2)OCO3)CC1 (stereo not drawn) was tested, and the “hERG current change (%, negative = inhibition) at 1uM” value was 17.7%. In the case of Cc1cccc(OCc2nnc(N)s2)c1, the “hERG current change (%, negative = inhibition) at 1uM” value was 0.653%. CC1CCN(c2c(NCC3CCC(C(=O)NCCc4ccc(Cl)cc4)CC3)c(=O)c2=O)CC1 (stereo not drawn) was tested, and the “hERG current change (%, negative = inhibition) at 1uM” value was -2.69%. Cc1ccc(S(=O)(=O)N2CCCOC2CNC(=O)C(=O)NCc2ccc3c(c2)OCO3)cc1 (stereo not drawn) was tested, and the “hERG current change (%, negative = inhibition) at 1uM” value was 4.55%. CC(C)C[C@@H]1NC(=O)[C@H](Cc2ccccc2)N(C)C(=O)[C@H](C)NC(=O)c2ccccc2NC(=O)[C@H](Cc2ccc(O)cc2)N(C)C1=O (cyclo([2Abz]A[NMeF]L[NMeY])) was tested, and the “hERG current change (%, negative = inhibition) at 1uM” value was 5.8%. For Cc1cccc(C)c1NC(=O)CN(C)CC(=O)Nc1ccc(C#N)c(Cl)c1, the “hERG current change (%, negative = inhibition) at 1uM” value was 4.68%. With CC1CCCN(c2ccc(C(=O)OCn3nnc4ccccc4c3=O)cc2[N+](=O)[O-])C1 (stereo not drawn) the “hERG current change (%, negative = inhibition) at 1uM” value was 11.1%. With Cc1ccc(NC(=O)CCn2nnc3ccccc32)c(C)c1 the “hERG current change (%, negative = inhibition) at 1uM” value was 6.38%. With COc1ccc(C(=O)NC2(C(F)(F)F)N=C3SCCN3C2=O)cc1 (stereo not drawn) the “hERG current change (%, negative = inhibition) at 1uM” value was 14.4%. In the case of Cc1ccc(N2C(=O)/C(=C/c3ccc(CN(CCC#N)S(C)(=O)=O)o3)C(=O)NC2=S)cc1C, the “hERG current change (%, negative = inhibition) at 1uM” value was 13.4%. In the case of O=C(COc1ccccc1Br)Nc1ccc(S(=O)(=O)N2CCCC2)cc1, the “hERG current change (%, negative = inhibition) at 1uM” value was 2.33%.
